# The other results are listed elsewhere or left out. Read counts after selection give these values, which scatter widely.
# System: SARS-CoV-2 3CLpro (nsp5)
# Test: substrate phage enrichment score (protease-eluted vs HEPES control, +1 offset) (ratio); higher = better cleaved substrate
# Details: selection round: 4; protease elution time: 15 min
# Procedure: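 Random heptapeptide substrate phage display (M13 pIII fusion, heptapeptide between an N-terminal biotinylated AviTag GLNDIFEAQKIEWHE and pIII; phages immobilised on streptavidin) eluted by cleavage with 50 nM protease in 20 mM HEPES at 37 °C. Selected phages were NGS sequenced, and the enrichment score is (reads in protease sample + 1)/(reads in HEPES blank-selection control + 1).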
row,Substance,substrate phage enrichment score
1,LRYEKTP,2.58
2,RTMCREQ,3.5
3,PTTELRA,> 23
4,SDCRSRH,11
5,KYEQYIN,5
6,NAQPSKY,1.43
7,RYPTYSR,2.22
8,ELSANTH,21.5
9,PCMRVKP,6.17
10,TQAEDYR,10.2
11,SAAPHHH,0.985
12,LYLQGGS,1.35
13,AHRHYVG,8
14,VHGVKLQ,> 38
15,PPHEITR,> 41
16,VSKTTLQ,> 81
17,HPESQRG,3.29
18,PCQLCQD,> 27
19,HRGGPSA,12.5
20,LTGNYGR,4.36
21,SPHCSSA,6.33
22,PTNEGLM,3.82
23,CAHRFKR,> 40
24,KFTHTER,5.71
25,EWRCVLQ,81.5

row,Substance,substrate phage enrichment score
1,VLLMHST,7.33
2,RATLKSQ,> 32
3,RASLTGR,2.67
4,YYRPDWD,> 27
5,DTCPRPN,0.444
6,AVKHRNR,6
7,KHMRPSR,9.83
8,KRGTTPC,1.35
9,AAAAHHH,1.13
10,HALPKPP,> 29
11,YSQNDGT,> 159
12,LNRCTGR,1.88
13,LQGISRQ,5.5
14,SNAAHHH,1.03
15,RHLELNS,4.75
16,ERTPTTQ,> 43
17,KLETPCR,2.11
18,ASAHHHH,1.07
19,SHPQRLE,2.27
20,ESHQAAH,5.1
21,TRSCQQC,0.769
22,CLKTAML,1
23,CEAKNRS,1.27
24,SRATMPG,> 32
25,APRNVGV,> 25

row,Substance,substrate phage enrichment score
1,LSAAHHH,0.706
2,NEKHTWI,0.222
3,TTGMPLH,> 23
4,DGGAKMS,> 26
5,PEPTMFQ,> 31
6,AYVKLQD,2.4
7,VIEATPE,> 36
8,KCCTLQA,> 34
9,LAEYRDR,8
10,YSPCQDR,3.25
11,EPAAHHH,0.375
12,TERPHLH,18
13,CEAVKRP,0.263
14,KRDLNRL,2.25
15,AGQLQLN,1.75
16,AMRGEYR,0.476
17,GALRHVD,10.5
18,RGHVHCR,0.483
19,SAAAHNH,1.13
20,TVAAHHH,0.542
21,RIDQKPM,2.43
22,PKQYYIG,> 21
23,EAYSNLQ,> 48
24,LGLVCRG,> 36
25,RPAHSIR,4

row,Substance,substrate phage enrichment score
1,VLQGRET,> 102
2,RNDVVQK,10
3,AGNGMPW,0.333
4,NYGQGRH,> 34
5,VPISVLQ,> 35
6,QEFHTRA,> 34
7,QCKVRST,6.75
8,AGCESRG,0.24
9,ICNSGNE,1.09
10,TNRVNLQ,> 43
11,PMSKHWQ,11.5
12,CEAAHHH,1.06
13,HDNPRWT,> 21
14,SHARCYG,5
15,TPKCGPG,2.73
16,PVACQHA,0.143
17,SLPQTKD,1.88
18,SNSCYEW,7.2
19,CVHMQSG,> 88
20,GKLQSAT,> 85
21,ICTMSAT,1.05
22,QSYEVQA,9.17
23,QGNSPNP,0.37
24,DLWFTTR,0.923
25,HEECESG,6.67

row,Substance,substrate phage enrichment score
1,GNHRVCS,> 32
2,PCQQYPC,> 31
3,VKATRTI,1.92
4,AHREEIP,0.953
5,QNGTKTT,> 67
6,NRKSEST,0.714
7,REKHQQV,> 22
8,PNTTRQS,> 49
9,MKQPRPN,17.5
10,AKGTLTR,4
11,TTKLGRD,> 113
12,WKSHSGR,> 23
13,NCCSLRC,0.2
14,RAHVPTE,2.39
15,RTTTSPL,1.76
16,RQYFQGG,4.09
17,PGGQYHR,> 57
18,AGLMCSP,1.61
19,NTILQAD,> 63
20,VDTQAQH,1.67
21,DKRTTDW,> 123
22,VILQSCS,> 29
23,CYNSHAS,2.42
24,ELKSRQT,2.43
25,RDFCVLQ,> 64

row,Substance,substrate phage enrichment score
1,SQPKPKP,1.09
2,NTQVSRF,0.912
3,SAATHHH,0.562
4,VKTQASE,4.24
5,TKKHFGQ,0.68
6,NGRRGMN,2.46
7,KPILQSS,> 115
8,IDCRGLT,0.286
9,CAHTTLQ,> 44
10,LTGRGTY,11
11,TKCTGEC,6.11
12,DRADWKH,1.05
13,YHFPAQV,1.33
14,AAAPHHH,1.25
15,RVSNKTT,> 125
16,SAAAQHH,1.46
17,IKCPMLH,> 30
18,QLSRPVH,0.0714
19,PYNVRQT,> 21
20,ESERLPE,> 22
21,SKAARLQ,> 29
22,DPVRDGR,6.6
23,CQMQVRD,0.222
24,VEHGGDT,2.38
25,SSVAAHH,1.84

row,Substance,substrate phage enrichment score
1,TWDGLLN,2.89
2,ERNVNCS,342
3,CSVLQSH,> 194
4,VNTHGAV,3.67
5,YRNRQQK,2
6,VGPHIII,0.941
7,ETEQNWT,1.8
8,DDHWRQS,0.692
9,SCLNCRQ,> 33
10,AMESPSS,> 87
11,EKQSDFT,1.44
12,NPALGTR,> 50
13,SWWQESS,> 25
14,FEKGPSK,11
15,FCENLKK,12
16,VLAEPNC,0.625
17,APAAAHH,1.2
18,SSSTSLR,2.73
19,VWAAPSV,3.29
20,IPSDFMM,1.52
21,PNQQNEA,3.5
22,HHVNQTG,> 52
23,VLPPSPQ,3.27
24,PRVATPT,> 59
25,RAVQLQG,> 43

row,Substance,substrate phage enrichment score
1,PRNEGVP,1.21
2,NCSRTEE,0.35
3,TPCSLHG,0.647
4,SNPPATR,4.83
5,TPGTLTP,> 54
6,PISSETI,0.211
7,NWKTGHP,> 24
8,SQPLRQV,2.37
9,SRPIWET,> 22
10,TPHSYSP,> 40
11,KDVNVNS,> 58
12,CYADATR,5.2
13,QVANGEP,1.36
14,SRKDNSG,1.47
15,SEVSTLH,> 52
16,CNHHHHG,1.08
17,NTQKKGE,> 28
18,VRTEVLE,0.375
19,SHGAMLQ,> 32
20,LKSGGHA,13.3
21,SGHTTLQ,> 114
22,PLMQSKC,2.15
23,SCRFRRI,0.323
24,KNAEHLS,1.3
25,TGSETHS,4.23

row,Substance,substrate phage enrichment score
1,LNITESQ,1.26
2,LKDSRVS,> 28
3,CRPVSAR,1.55
4,CSLQCAL,17.3
5,TDSTRVK,4.33
6,NLAAHHH,0.421
7,VNSPPAI,1
8,SHVQNTW,77.5
9,SPTILQG,5.75
10,GPTYAEA,8.67
11,RVRVTLQ,> 374
12,HYPFLQS,15.7
13,IGSCVMD,3.83
14,CPSTKNR,> 42
15,LNGPAYC,> 22
16,THNNSVK,> 49
17,HPAAHHH,0.422
18,SSSQRLT,> 73
19,GCVNLQA,397
20,STTSTTA,16.3
21,SSSHNMT,35.5
22,ASQGANC,> 31
23,VVRQGCT,0.545
24,GSAAHHH,0.858
25,SGLTHPP,> 42

row,Substance,substrate phage enrichment score
1,QRTRGPT,0.516
2,RPSGYMT,> 27
3,RCWASAG,1.73
4,GETRLRS,> 27
5,NQAAHHH,1.38
6,VDRMSPL,1.78
7,YHVMDEC,0.733
8,PLCPMQS,> 42
9,TRCQSEA,3.09
10,YPWDIVQ,> 22
11,PCLSTVN,0.6
12,QSSTPPK,0.643
13,CLNLPMD,1.43
14,GNRSCTT,> 24
15,TAPSRSG,5.67
16,QSAAHHH,0.94
17,GAGVHLW,2.83
18,YRQPSSR,> 46
19,WQGPRLQ,18.5
20,AIGCTLQ,> 86
21,SKRTELE,> 21
22,ADYMGAV,1
23,SCTHTKP,0.227
24,TPSANRG,2
25,CYDMTRQ,> 25

row,Substance,substrate phage enrichment score
1,YDCILQS,> 23
2,QVREEQQ,0.846
3,EQGVMRM,> 38
4,SRGTSVL,0.125
5,NSLSPLP,4.5
6,VYYGNGC,> 43
7,VNSEITP,> 28
8,QGERCLP,> 34
9,SRFCRGL,> 24
10,PILPHVM,> 29
11,TPIATPQ,5.17
12,CRPAAHH,5.25
13,ISGTVKA,1.46
14,QRTREKN,2.94
15,HTPQCKQ,> 67
16,CSAAAHH,1.05
17,AGEKLTP,> 23
18,KANPRLQ,> 99
19,RRTYCTT,2.92
20,AHPWCSL,0.114
21,QIRNGAT,9
22,VSPAHHH,0.238
23,VPCGYTW,2.18
24,AEGVNHR,> 23
25,REPLTWP,0.6

row,Substance,substrate phage enrichment score
1,SRMCPSQ,2.67
2,EPCWPAY,> 27
3,TRAPQQQ,1.58
4,WAAAHHH,0.598
5,ECRETRI,> 27
6,SRIQASD,> 24
7,DHHHHGA,0.432
8,SDDRFRQ,4.75
9,NEGRLWM,> 23
10,QSRSQLQ,> 33
11,THTGVRP,> 26
12,AFSEPTA,18
13,TDIPALR,> 38
14,LRCHMSS,0.316
15,NQGGSAA,0.833
16,HRHTNLQ,> 40
17,SSTPGNQ,1.5
18,QWPHAKP,> 29
19,RLHDQAG,2.22
20,TRMSDTR,> 31
21,ADRVPYV,> 36
22,EMRISVG,4.75
23,SLPVNLQ,> 233
24,TRGPQVP,> 23
25,SGVCMRK,> 62

row,Substance,substrate phage enrichment score
1,LESPCQA,1.66
2,AISNDTV,0.217
3,VGYAKLQ,> 42
4,CYISEAD,1.92
5,NASAGSG,6.5
6,KAQSSNE,> 29
7,CNRPASR,0.385
8,RTLTPMV,5.5
9,RPTCHLQ,> 61
10,VNLKHAP,4.89
11,LTNVKVH,5.33
12,NWSLSPG,11
13,CFRTSVR,1.4
14,KDAVSFQ,11
15,SANLHGH,> 57
16,YKPGGRT,1.47
17,PSKQTED,7.33
18,DNRRPEY,> 21
19,TESELQG,17
20,EVGPRGP,16
21,SSMDINR,1.27
22,VKAPAFG,> 28
23,RQPCTLQ,> 612
24,IGAAHHH,0.509
25,ESAPHTK,> 27

row,Substance,substrate phage enrichment score
1,GHTASPA,0.926
2,PQSQYYP,1.26
3,RQEPMNA,> 37
4,RSPWDSR,> 35
5,LQKATGK,22.5
6,RALESKQ,6.75
7,RKDNMIS,> 28
8,EVPNCLQ,> 21
9,TSGGGSH,1.46
10,STLGHSR,> 148
11,YLQDNAK,0.857
12,DLWTWGQ,2.44
13,RIWRLDC,> 37
14,QPSACRA,1.22
15,AERECRD,1.08
16,PTCRTVR,> 57
17,CAAAQHH,0.716
18,VMSFPCS,> 22
19,LVRAPYH,4.6
20,SCNCMNC,2.83
21,NRPCHMR,> 25
22,VTKWSEL,> 28
23,TSYGHHR,12
24,QNLKFRP,> 48
25,NSAAHHH,2.1

row,Substance,substrate phage enrichment score
1,MRGWALQ,1
2,KREALRP,2.75
3,GTHEDPP,> 23
4,GINNTAA,2
5,LNGTVLQ,> 54
6,GLESFQG,> 37
7,GCSSLHG,2
8,GDHTRLQ,> 83
9,EKDVWSR,2.14
10,RTLTVLQ,> 39
11,HSQALNG,24.5
12,GALPVLQ,> 38
13,ASRACTQ,> 26
14,LNFNCNS,4.83
15,YTKSGPA,3.14
16,NTRSCLQ,> 233
17,TWQLSCP,3.14
